Data reported in patent US20020032316A1, “Hapten-carrier conjugates for use in drug-abuse therapy and methods for preparation of same” (priority 1995, published 2002).

Assay: HPLC analysis of methyl ester hydrolysis of succinylated norcocaine
Conditions: pH 6, 7 and 8 at 5° C. over 24 hours

COC(=O)[C@H]1[C@@H](OC(=O)c2ccccc2)C[C@@H]2CC[C@H]1N2C(=O)CCC(=O)O [succinylated norcocaine, 3β-(Benzoyloxy)-8-succinoyl-8-azabicyclo[3.2.1]octane-2β-carboxylic acid methyl ester]
hydrolysis of the methyl ester (HPLC): essentially undetectable
